Test results taken from the RNAGym collection of RNA variant scans (doi:10.7554/elife.90254).
Read counts are not given, so values of variants with three or more changes are uncertain.

B1: LINE1-full (parent)
chain: UACGUAGGUGGUUUUCCCCUGAUAGUGCUAAGGGGGCCUGGAAGUUUGGACUGGGCAGAGCUCAACACAGCGUGGCAAAGUGGCUGUGGCUAGACUGCCUCUCUGGAUUCCUCGUCACUCAGCAGGGCAUCUCUGAGAGAAAUGCC

Variants of: B1
Assay: self-cleavage, relative activity (ratio to wild type); higher = more cleavage; in vitro, sequencing; the parent is a self-cleaving ribozyme

| Variant | self-cleavage |
| --- | --- |
| A24U U26C G35A U47C A94G | 0.55 |
| U9A C18A U96C | 0.43 |
| U15C G75C A141C | 0.45 |
| U23C U73G U134C | 0.32 |
| G72A A94G U104G | 0.17 |
| C3U U96C A117U | 0.1 |
| G82A U115A G126A A141G | 2.25 |
| G32A A92G C99U | 0.03 |
| A22U A67U A117G | 0 |
| A22U G127A A138G | 1.31 |
| U96A U104C C116U | 0.06 |
| U52C A107G C113U A124G A142G | 0.53 |
| U13C U108C U115C | 0 |
| C71A U96C A117G | 0.03 |
| A67G A136G A140G | 0.84 |
| A107G A141G U143A | 1.96 |
| U14C A79G U132C | 1.27 |
| U62G A78G U112C | 0 |
| G4A A65G U130C U134A | 0 |
| A107G C116U U143A | 1.21 |
| U47C A79G C113U | 0.25 |
| U20A U39A U91A A124C | 0.92 |
| A22G G40U A124U | 0.85 |
| G10A U29C U115C | 1.53 |

| Variant | self-cleavage |
| --- | --- |
| U14C A22U A78G | 0.92 |
| U9A U12C U13C U130C | 0.91 |
| G35U A57G A59U | 0.54 |
| U14C A121G U132C | 0.98 |
| U12G A57U U130A | 0.17 |
| U12C U15A U46C U96A U143A | 0 |
| G10A G53U U85A A92G A141G | 0.08 |
| U26G A79G A142G | 1.4 |
| U1C U20A A67U U108C A141G | 0.07 |
| A57G A64G A67U G126C | 0.12 |
| U1C U96C G126A | 0.08 |
| U20G G33A G49U | 0.94 |
| U15A U102A U108C A142G | 0.88 |
| A43C A79G U130C | 1.07 |
| A22U U115C U134G | 1.2 |
| U26A C66A U81A | 0.07 |
| A42G A79G U85A A124G | 0.2 |
| A67G A77G A107G | 0 |
| U62G A69C U104C | 0.54 |
| G11U A42G A64G U115A | 0.26 |
| U62C U108C U134A | 0 |
| U39C U52G G75A G139A | 0.48 |
| U14C C133A U134A | 0.59 |
| U15C U87A U102A | 0.06 |

| Variant | self-cleavage |
| --- | --- |
| C19U A42G A77U U85A A124G A129U | 0.04 |
| U15C A50G U104C A121U | 1.45 |
| G44A U96C A136G | 0.19 |
| U13C A78U U112A C120U | 2.42 |
| G7A U14C U62C U112C A136G | 0.15 |
| U12C A43G G82A | 1.35 |
| G58A U87A G114A | 0.1 |
| G33U U87C A142G | 0.2 |
| G32C U39A U45G | 1.02 |
| U9C U39C A78U U87A A107G | 0.18 |
| U45C U62C C71A U132A | 0.03 |
| U1A U15G U26A U52A G54U | 0.65 |
| A30G U45A A141U | 1.05 |
| U29C A31U U39C U132C | 0.5 |
| U9C U96A U112C A142G | 0 |
| U45C U73C G75C U104A | 1.31 |
| U13C A57G U119C A140U | 2.12 |
| A65G A77G G114A | 0.07 |
| A24U U29G A140G | 0.82 |
| A64U U73G A79G A142U | 0.12 |
| G27A G40U A59G | 0.01 |
| U52A A64G U108C C113U | 0.61 |
| U20C A67G G97A A124U | 0.03 |
| U47C A67U U130C | 0.63 |

| Variant | self-cleavage |
| --- | --- |
| U9C A43G U45C | 2.42 |
| U9A U46C G70A | 0.48 |
| U45C U52A U73A | 1.88 |
| A2G U15C G106U | 1.16 |
| U13C U20G A31U | 0.33 |
| U29C A43G A77U G88A A121U | 0.06 |
| U9A U20C U115C A124U | 1.19 |
| A30U A94G U143C | 0.14 |
| U14C A43G C76U | 2.12 |
| U46A C95U U130C | 0.4 |
| U13A U20C U73A U81A | 1.29 |
| A78G U102C A121G A141G | 0.57 |
| A67U A136U C145G | 0.17 |
| G7U U15C C61U U134A A142G | 0.04 |
| A67G G126A U143C | 0.54 |
| U12G A43G A124U A138U | 1.26 |
| C118U A124G U132C | 0.88 |
| U14A A50G A65G C84U A140G | 0.06 |
| C19U U39G U109C | 1.28 |
| U52C U100C G125U | 2.24 |
| U39A A65G A141G | 0 |
| U115C A117U U119A A138G A142G | 0 |
| A94U A107U U108C | 0.19 |
| U15C A59G G126A | 0.21 |

| Variant | self-cleavage |
| --- | --- |
| A30U U47C U73C A138G A142G | 2.76 |
| G55A A107G A136G | 0.14 |
| A31C A43G A64C U100C | 0 |
| U12C U20A U102A | 1.17 |
| U96C U115C A140G | 0.22 |
| U15C A59U U134A | 1.19 |
| U15C C38U A50G A59G A107G U134A | 0 |
| A2U U29C G32A U91C | 0.91 |
| U46A A64C A117U A121U A129G | 0.33 |
| A94G U119C A140G C145U | 0.87 |
| U85C G135A A136C | 0.28 |
| U29A G83A U102C | 0.92 |
| A57G A65G C123U | 0.05 |
| U39A A79G U85C A121U | 0 |
| G7U U102C A129G | 1.18 |
| U73C C111U C116U C123U | 2.05 |
| U9C A43G A79G | 2.9 |
| C16A A57G A78G | 0.64 |
| A22U U26C U109A | 1.53 |
| G35U C37U U39C A140G | 0.77 |
| G86A A121U A142G | 0.08 |
| A69G U108C U119C A141U | 0 |
| C37G A59G U109C U115A A121G | 0 |
| A77G U132C A140G | 2.79 |

| Variant | self-cleavage |
| --- | --- |
| A6G U13C A77U A107G U119A | 0.88 |
| U9G U52A A94U | 0.31 |
| U12G U13C U52A U100C G122A | 1.67 |
| U12G U108C U134C | 0.43 |
| U14C U96C U115C | 0 |
| U14C G114U U130A | 1.35 |
| U13C U52A A138G | 1.58 |
| A22U U26C G54A U85A U115C | 0.04 |
| U47C U62C A65G A67U C103U | 0.12 |
| A59G A67G G93U A136G A142G | 0 |
| U9C U14C G70U | 0.18 |
| A94G U132C A138G | 0.3 |
| G44U A64G A136U | 0.26 |
| A2U U14C A50U A142G | 0.89 |
| A59U A79G A141U | 0.52 |
| A64G U81A C99U | 0.22 |
| G10U U62C A79G | 0 |
| A2G A78G A94U A138U | 0.47 |
| U45C A92U A129G A140G | 0.84 |
| U102C U108C A138G | 1.91 |
| U13A U14C U52C | 1.06 |
| U47C U62C U81A G86A A142G | 0.01 |
| A107U A140C A142G | 1.47 |
| U26C G49A A78G | 0.48 |

| Variant | self-cleavage |
| --- | --- |
| A57U A79G U119C | 0.1 |
| U62A A69U A117G | 0.14 |
| U9C U23G A64U A69G C71U C120U | 0.13 |
| U9C A43G U46C A138G A141G | 2.3 |
| G21U A57G U134C | 0.14 |
| A64U A121G A129G | 0.51 |
| U39A U45G G53A U104C G114A | 1.59 |
| U45C U132C A142G | 2.09 |
| U47C U87C A138G A141U | 0.39 |
| U13C A24U U115C | 1.53 |
| U13C A50U U62C U130G U132C | 0.35 |
| U12C U47A U109G U115C A142G | 0 |
| U9A A69G U100C | 0.97 |
| U13C G41U U132A | 1.33 |
| U20C C28A U73C U112C A136U | 0.53 |
| A43G A94G C145U | 0.37 |
| G21U G36C A43G U62A A67U U132C | 0.09 |
| U46C U52A G97A | 0.53 |
| U45C A65G U132C | 0 |
| U62C A107G A140G | 0.08 |
| A31U A50G A140G | 0.84 |
| U23C A65U A77U U115A | 0.26 |
| G27U A59U U143C | 0.78 |
